Assay results from PMC9911399, “Two distinct binding modes provide the RNA-binding protein RbFox with extraordinary sequence specificity”.
Where a chain is given by its changes, count along the chain named. The list shows a part of the results.

T1: RBFOX1 RRM (Homo sapiens, UniProt Q9NWB1 109-208)
T1 sequence: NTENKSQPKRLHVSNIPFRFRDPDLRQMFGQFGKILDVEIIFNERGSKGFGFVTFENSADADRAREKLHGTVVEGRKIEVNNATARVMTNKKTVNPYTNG

B1: UUCAAGC (DNA:RNA)
RNA: GGGAGACCGGAAUUCAGAUUGUCCUUCAAGCUUAAAUCCCGUCGUAGCCACCA
DNA 1: CAATCTGAATTCCGGTCTCCC
DNA 2: TGGTGGCTACGACGGGATT
B2: UCAGCUA (DNA:RNA)
RNA: B1 RNA with U26C, C27A, A28G, A29C, G30U, C31A
DNA 1: CAATCTGAATTCCGGTCTCCC
DNA 2: TGGTGGCTACGACGGGATT
B3: AGAAGUA (DNA:RNA)
RNA: B1 RNA with U25A, U26G, C27A, A29G, G30U, C31A
DNA 1: CAATCTGAATTCCGGTCTCCC
DNA 2: TGGTGGCTACGACGGGATT
B4: UGAUCAU (DNA:RNA)
RNA: B1 RNA with U26G, C27A, A28U, A29C, G30A, C31U
DNA 1: CAATCTGAATTCCGGTCTCCC
DNA 2: TGGTGGCTACGACGGGATT
B5: UAUUCUG (DNA:RNA)
RNA: B1 RNA with U26A, C27U, A28U, A29C, G30U, C31G
DNA 1: CAATCTGAATTCCGGTCTCCC
DNA 2: TGGTGGCTACGACGGGATT
B6: GCGGGCC (DNA:RNA)
RNA: B1 RNA with U25G, U26C, C27G, A28G, A29G, G30C
DNA 1: CAATCTGAATTCCGGTCTCCC
DNA 2: TGGTGGCTACGACGGGATT
B7: CAGAUGA (DNA:RNA)
RNA: B1 RNA with U25C, U26A, C27G, A29U, C31A
DNA 1: CAATCTGAATTCCGGTCTCCC
DNA 2: TGGTGGCTACGACGGGATT
B8: AUACUUU (DNA:RNA)
RNA: B1 RNA with U25A, C27A, A28C, A29U, G30U, C31U
DNA 1: CAATCTGAATTCCGGTCTCCC
DNA 2: TGGTGGCTACGACGGGATT
B9: CCUUCGA (DNA:RNA)
RNA: B1 RNA with U25C, U26C, C27U, A28U, A29C, C31A
DNA 1: CAATCTGAATTCCGGTCTCCC
DNA 2: TGGTGGCTACGACGGGATT
B10: GUGACUA (DNA:RNA)
RNA: B1 RNA with U25G, C27G, A29C, G30U, C31A
DNA 1: CAATCTGAATTCCGGTCTCCC
DNA 2: TGGTGGCTACGACGGGATT
B11: AAGAACA (DNA:RNA)
RNA: B1 RNA with U25A, U26A, C27G, G30C, C31A
DNA 1: CAATCTGAATTCCGGTCTCCC
DNA 2: TGGTGGCTACGACGGGATT
B12: CCAGUUG (DNA:RNA)
RNA: GGGAGACCGGAAUUCAGAUUGUCCCCAGUUGUUAAAUCCCGUCGUAGCCACCA
DNA 1: CAATCTGAATTCCGGTCTCCC
DNA 2: TGGTGGCTACGACGGGATT
B13: GCAUGCA (DNA:RNA)
RNA: B12 RNA with C25G, G28U, U29G, U30C, G31A
DNA 1: CAATCTGAATTCCGGTCTCCC
DNA 2: TGGTGGCTACGACGGGATT
B14: GAGCUUA (DNA:RNA)
RNA: B12 RNA with C25G, C26A, A27G, G28C, G31A
DNA 1: CAATCTGAATTCCGGTCTCCC
DNA 2: TGGTGGCTACGACGGGATT
B15: GCUGUAG (DNA:RNA)
RNA: B12 RNA with C25G, A27U, U30A
DNA 1: CAATCTGAATTCCGGTCTCCC
DNA 2: TGGTGGCTACGACGGGATT
B16: GACUAAC (DNA:RNA)
RNA: B1 RNA with U25G, U26A, A28U, G30A
DNA 1: CAATCTGAATTCCGGTCTCCC
DNA 2: TGGTGGCTACGACGGGATT
B17: UAGGGGU (DNA:RNA)
RNA: B1 RNA with U26A, C27G, A28G, A29G, C31U
DNA 1: CAATCTGAATTCCGGTCTCCC
DNA 2: TGGTGGCTACGACGGGATT
B18: CAUGCGA (DNA:RNA)
RNA: B12 RNA with C26A, A27U, U29C, U30G, G31A
DNA 1: CAATCTGAATTCCGGTCTCCC
DNA 2: TGGTGGCTACGACGGGATT
B19: GCCUGAA (DNA:RNA)
RNA: B12 RNA with C25G, A27C, G28U, U29G, U30A, G31A
DNA 1: CAATCTGAATTCCGGTCTCCC
DNA 2: TGGTGGCTACGACGGGATT
B20: CAGUUAC (DNA:RNA)
RNA: B12 RNA with C26A, A27G, G28U, U30A, G31C
DNA 1: CAATCTGAATTCCGGTCTCCC
DNA 2: TGGTGGCTACGACGGGATT

What follows are binders tested against T1, RBFOX1 RRM (assay: EMSA; HiTS-Eq, 1 nM pool, 10 min; buffer printed only for the single-RNA assays: 10 mM Tris pH 7.5, 150 mM NaCl, 3.4 mM EDTA, 0.001% NP-40, 30 C). Conditions: tags: His6 N-terminal (pET28a); label: 5' 32P.
Outline: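 A pool of RNA with 7 randomized nucleotides, 5′-radiolabelled and with DNA-annealed flanks, was equilibrated at 1 nM for 10 min in 50 µL with purified RbFox RRM, wild type or mutant, across increasing protein concentrations. Free RNA was separated by 8% native PAGE, excised, reverse-transcribed, barcoded by PCR and sequenced. Relative association constants were obtained from read-count changes of each RNA species versus the control reaction and normalised to the cognate motif.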

Binder | binding signal
B1 | 0.00716 KA relative to UGCAUGU
B2 | 0.00618 KA relative to UGCAUGU
B3 | 0.00622 KA relative to UGCAUGU
B4 | 0.0136 KA relative to UGCAUGU
B5 | 0.016 KA relative to UGCAUGU
B6 | 0.0161 KA relative to UGCAUGU
B7 | 0.00723 KA relative to UGCAUGU
B8 | 0.00354 KA relative to UGCAUGU
B9 | 0.00851 KA relative to UGCAUGU
B10 | 0.0087 KA relative to UGCAUGU
B11 | 0.00192 KA relative to UGCAUGU
B12 | 0.00748 KA relative to UGCAUGU
B13 | 0.751 KA relative to UGCAUGU
B14 | 0.00663 KA relative to UGCAUGU
B15 | 0.0169 KA relative to UGCAUGU
B16 | 0.00459 KA relative to UGCAUGU
B17 | 0.00814 KA relative to UGCAUGU
B18 | 0.0092 KA relative to UGCAUGU
B19 | 0.0276 KA relative to UGCAUGU
B20 | 0.00619 KA relative to UGCAUGU
